Assay results: the antibiotic and cytotoxicity screens of Wong et al. (2023)
This is one part of the list.

Columns and labels:
HSkMC = human skeletal muscle cells; assay: cytotoxicity call (relative viability < 0.9); details: 10 µM
HepG2 = assay: cytotoxicity call (relative viability < 0.9); details: 10 µM
S. aureus RN4220 = assay: growth inhibition call (relative growth <= 0.2); details: 50 µM

For `O=C1CCC(C(=O)N2CSCC2C(=O)O)N1` (stereo not drawn), which cytotoxicity call (HSkMC) is on record?
The cytotoxicity call was “inactive”.

What about the cytotoxicity call (HepG2) of the same compound?
The cytotoxicity call was “active”.

And the growth inhibition call (S. aureus RN4220)?
Its growth inhibition call is “inactive”.

For `OC[C@@H](O)[C@@H](O)[C@@H](O)/C=N/Nc1ccccc1`, which cytotoxicity call (HSkMC) is on record?
The cytotoxicity call was “inactive”.

And the cytotoxicity call (HepG2)?
Its cytotoxicity call is “inactive”.

And the growth inhibition call (S. aureus RN4220)?
The growth inhibition call was “inactive”.

With `CN1CCc2nc(C(=O)N[C@@H]3C[C@@H](C(=O)N(C)C)CC[C@@H]3NC(=O)C(=O)Nc3ccc(Cl)cn3)sc2C1` as the compound, how does the cytotoxicity call (HSkMC) read?
The cytotoxicity call was “inactive”.

And the cytotoxicity call (HepG2)?
Its cytotoxicity call is “inactive”.

What about the growth inhibition call (S. aureus RN4220) of the same compound?
Its growth inhibition call is “inactive”.

How did the cytotoxicity call (HSkMC) turn out when `C[C@H](CO)N1C[C@H](C)[C@H](CN(C)S(C)(=O)=O)OCCCC[C@H](C)Oc2ccc(NS(C)(=O)=O)cc2C1=O` was run?
Its cytotoxicity call is “inactive”.

What about the cytotoxicity call (HepG2) of the same compound?
Its cytotoxicity call is “inactive”.

What about the growth inhibition call (S. aureus RN4220) of the same compound?
Its growth inhibition call is “inactive”.

`COc1ccc2c3c([nH]c2c1)[C@@H](CO)N(C[C@]13CN(C)C1)C(=O)CN1CCOCC1` was tested. Which cytotoxicity call (HSkMC) did it give?
Its cytotoxicity call is “inactive”.

What about the cytotoxicity call (HepG2) of the same compound?
The cytotoxicity call was “inactive”.

What about the growth inhibition call (S. aureus RN4220) of the same compound?
Its growth inhibition call is “inactive”.

`CCN1CCN(C(=O)/C=C\C(=O)O)CC1` was tested. Which cytotoxicity call (HSkMC) did it give?
Its cytotoxicity call is “inactive”.

What about the cytotoxicity call (HepG2) of the same compound?
The cytotoxicity call was “inactive”.

And the growth inhibition call (S. aureus RN4220)?
The growth inhibition call was “inactive”.
